According to the supplement of paper PMC3334620:
Over roughly 33,000 sequences, “E-score (-0.5 to 0.5)” has its median near -0.017; the highest 2% begin near 0.3. The list shows a part of the results.

molecular target: T1, Sut1 (UniProt P53032); test: PBM E-score (8-mer binding enrichment) (E-score (-0.5 to 0.5)); higher = stronger / more preferred TF binding; most listed sequences are background and not binding sites; conditions: protein concentration: 200 nM; construct: GST-full length
T1 sequence: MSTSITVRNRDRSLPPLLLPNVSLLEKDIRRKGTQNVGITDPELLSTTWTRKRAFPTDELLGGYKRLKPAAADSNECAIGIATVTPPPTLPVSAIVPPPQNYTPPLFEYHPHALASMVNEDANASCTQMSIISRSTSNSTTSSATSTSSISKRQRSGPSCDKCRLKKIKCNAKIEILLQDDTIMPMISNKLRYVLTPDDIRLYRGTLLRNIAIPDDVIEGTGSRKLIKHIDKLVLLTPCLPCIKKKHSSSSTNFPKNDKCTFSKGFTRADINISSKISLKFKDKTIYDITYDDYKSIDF
Procedure, shortened: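 Full-length yeast transcription factors or their DNA-binding domains, GST-tagged and expressed with PURExpress, were applied at about 100-200 nM to universal all-10-mer Agilent arrays. These arrays had been made double-stranded by primer extension on fresh or once-stripped slides. Detection used fluorescent anti-GST, normalisation used masliner, and E-scores for ungapped eight-base words pooled with reverse complements came from the Universal PBM Analysis Suite.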

Sequence	PBM E-score
ATAAATCG	0.2
GAGTCGAC	0.0275
ACATAGTC	0.114
AACCCGCA	-0.0898
AGGCTTGG	-0.148
CATACAAG	-0.00318
CCGGAAAC	0.245
GGTCAGAA	0.0293
GGAATTAA	0.285
ATGTGTTG	0.092
CTCCGAAC	0.468
CCATGAGC	-0.221
ACTCTCAG	-0.0536
GACAAGCC	-0.141
CGTCGACA	-0.139
ACCCTGCT	-0.299
CTTTCCTA	-0.147
AGGTTGGA	0.0312
CTGTTGAA	0.127
ATCGTGTG	0.039
ACTCAAGG	-0.0836
GTACAAAA	0.219
TACCCCGA	0.324
CAACGTTC	-0.0199
ATTTCACC	0.00801

Sequence	PBM E-score
CGTCAATC	-0.0752
CAGTTGTA	0.00162
ATATCCCA	0.108
AGAAGTAG	-0.127
ATTTTGGC	0.0477
ACAGGCCA	-0.0945
ACTGGTTA	0.134
ACTTTAAC	0.0923
AGTGTAAG	0.0646
CCCTAAGG	-0.15
ACAAGGGC	-0.184
AGCGGAGA	0.325
GATTGCGC	0.0894
TCAGTCAA	-0.0126
ACAGCCAA	0.0381
GGCGACAA	-0.163
CGCGGAAC	0.118
CAGGGCGC	-0.275
AATCTCCT	0.147
AGGCGACG	-0.0162
GGGGACCC	-0.275
CCCGTGAC	-0.156
ACTATATC	0.209
GTCGGATA	0.143
CGAGGCCA	0.0156

Sequence	PBM E-score
ATGGAGAG	0.0475
CATAGCTA	-0.182
ATGCAAAT	0.0646
ATGAGTGC	-0.0473
CTAAAAAA	0.233
ACAACAGG	-0.131
GATTTTAA	0.253
AACCATCA	0.209
ATTCATAC	0.21
AGTACTAC	0.155
GCTCTACA	-0.121
GGCTGGCA	-0.337
AGAGAAGC	-0.0428
AAAATCAG	0.0609
CTCTTATC	0.284
CTTATCAA	0.192
ATGGATTG	0.139
CAAGGTAA	0.0319
CATACCGG	0.00242
ATATTCAT	0.187
ACGATTGG	0.0321
CCATCTCG	-0.104
CTGGTGTA	-0.121
ATGCCTTC	-0.251
AGGGAGCG	-0.26

Sequence	PBM E-score
AGCGGTTA	-0.0642
ACACCTAC	-0.0558
ACCGACCA	-0.0782
ATCAAGGA	0.0319
AAAGATCA	0.0373
CCTTTCCC	-0.0285
ATGTAAAA	0.218
CCGTTGAC	-0.147
ACCGTCTC	-0.0585
CGCTACAG	0.00067
AAAGCGAT	0.101
ATGCTACC	0.0202
TCCGGTAA	0.384
GAGAAAAA	0.252
CACCAAGG	-0.12
GGAAAAAA	0.229
CAAGACGC	-0.124
ATTCGATA	0.264
AGAAGCAT	0.128
AATACCTA	0.223
TCAAGAAA	0.316
CGTAATGC	0.0921
AGGAAAAA	0.11
ACCCTAAA	-0.0342
TATTAGAA	0.239

Sequence	PBM E-score
GCCGCAAA	-0.078
GTATACTA	-0.155
ACCATGGG	-0.238
GCAGGTAC	-0.132
CCCATGGG	-0.2
ACGATTTC	0.155
AGATCGAT	-0.104
AGAAAATC	0.113
CAGCGGGA	-0.267
AGTCTCTG	-0.12
ATCAAGTC	0.141
ACACACCG	-0.0964
CAGACGTC	-0.096
CAGAAATC	0.0914
CGCGAATA	0.0379
ACCCACAG	-0.239
CGATTTTA	0.162
CCGTGAAC	-0.137
CCTGGTTC	-0.07
CTATGTCC	0.127
AAGGTTCT	0.146
ACGATCTC	-0.0655
ATACGGAC	0.374
AAGAAAAC	0.237
ATATCGAA	0.128

Sequence	PBM E-score
AACAGGCA	-0.112
CTTACACA	0.012
GTCACCCA	-0.273
GAGCGCCA	-0.124
CGTTTAGA	0.0198
CACCGCAG	-0.087
ACTCCATA	0.128
CGTCGACC	-0.0962
ATAGCCGC	-0.0688
ACGGCGCG	-0.1
CACGTTGG	-0.114
GTAGCAAC	-0.00622
AAGACCAG	0.0464
AACTACGC	0.0519
GTCCACAC	0.00775
CTGGAATA	0.101
ACTGAGTA	-0.0453
GATATATC	0.183
CGTCTGCC	-0.166
GCTCGGAC	0.365
ATTCTTGC	0.122
CGTGGAAA	0.153
ACAGCAAA	0.127
ACATACAT	0.19
CTTGCTCA	-0.319

Sequence	PBM E-score
AATATGGG	-0.186
AGAGCATA	-0.153
CGCAGCAC	-0.0502
ATAATGCA	0.0682
AATCCCGA	0.138
ATAGTTCA	0.098
ACATTTCA	0.113
GCCGGAAC	0.146
AGTTGCAT	0.0216
ACACCCGG	-0.0673
GGGGACTA	-0.185
CTGGTACA	-0.111
GGGAACCA	-0.211
GAAAGGCC	-0.077
CAAAACAG	0.115
AAGCCGCA	-0.0693
ATAGCAGA	0.0126
GCTCTCAA	0.057
AGCCAAGC	-0.147
GAAGTCGA	0.0953
AACTGTTG	-0.0735
GATTCCCC	-0.15
